# From PubChem BioAssay AID2675 (National Center for Advancing Translational Sciences (NCATS), 2010)
# Out of some 280,000 compounds screened, about 100 (0.036%) were called active. Inconclusive means that the source gave no clear call. Such entries were picked first, then a sample of the others. The call rests on the fitted dose curve; in most records, active means well fitted inhibition curve with a large enough effect in the signal ratio, with a control signal flat (not every such curve was filed as active); inconclusive means small, poorly fitted or top-dose-only effect, or effect the other way, or a change in a side signal; inactive means no such curve, though single readings can be large or run the other way; the % refers to the signal ratio. Potencies beside an inconclusive call are fits to weak or partial responses and may not hold up. A note “side channel” means that the fit belongs to a control or component signal, not to the main read-out.
# Biological target: Muscleblind-like protein 1 (Homo sapiens) (UniProt Q9NR56)
# Test: qHTS Assay for Inhibitors of MBNL1-poly(CUG) RNA binding
# Settings: TR-FRET MBNL1-His/biotin-(CUG)12 binding, 665/545 ratio; series mostly up to 57.5 µM
# Text: NIH Chemical Genomics Center [NCGC] NIH Molecular Libraries Probe Production Centers Network [MLPCN] MLPCN Grant: R03 MH087421-01 Assay Submitter (PI): Charles Thornton NCGC Assay Overview: Expanded CTG repeats in the 3' untranslated region of the DM protein kinase (DMPK) gene causes type I myotonic dystrophy (DM1). DM1 is a multi-systemic disease with a prevalence of 1/7000. Clinical features include myotonia, progressive muscle weakness and wasting, cardiac arrhythmia, insulin resistance, hypersomnolence, cataracts, and other symptoms. The pathogenic effect of expanded CTG repeats stems from deleterious effects of the mutant transcript. CUGexp mRNA accumulates in nuclear foci and sequesters proteins of the muscleblind family, of which MBNL1 is the most common family member in skeletal muscles. The binding interaction between MBNL1 and CUGexp tracts leads to deregulation of alternative splicing and is therefore a key molecular step in the pathogenesis of DM1. To target this binding interaction, we optimized a protein-RNA binding assay in 1536-well format for identification of small molecule inhibitors of biotinylated (CUG)12 and his-tagged MBNL1 binding. Protein-RNA complex of MBNL1-His and Biotin-(CUG)12 captures the detection reagents terbium-labeled anti-His antibody and streptavidin conjugated XL665. This brings the terbium label within close proximity to XL665 to allow time-resolved fluorescence resonance energy transfer (TR-FRET). Inhibitors of MBNL1-(CUG)12 binding will disrupt TR-FRET.
# NCGC Assay Protocol Summary: This is a TR-FRET binding assay with MBNL1-His and Biotin-(CUG)12 RNA. The assay uses a ratiometric measurement. In the presence of MBNL1-(CUG)12 complex, the excitation energy is transferred to the XL665 acceptor label, causing emission at 665nm, while the 545nm donor signal […]. Data were normalized to the controls for basal activity (buffer only) and 100% activity (with MBNL1-(CUG)12). […] The final titration was 92 nM to 58 uM. (3) Add 1 ul of terbium labeled anti-His antibody (0.055 ng/ul final concentration) (4) Add 1 ul of streptavidin-XL665 (5 nM final concentration) (5) Incubate 60 min at room temperature (6) Detect the assay plate in a EnVision plate reader (PerkinElmer) with Ex=340 nm, Em1=665 nm and Em2=545 nm. Keywords: mytonic dystrophy type I, DM1, muscleblind like 1, MBNL1, CUG expansion, protein-RNA binding inhibitor, high throughput screening, MLSMR, MLSCN, NIH Roadmap, qHTS and NCGC
# Potency means the concentration at half of the fitted maximal effect; tags describe the fitted curve by direction and shape or compound fluorescence and quenching.
# Sequence of UniProt Q9NR56 (Q9NR56 whole entry, looked up): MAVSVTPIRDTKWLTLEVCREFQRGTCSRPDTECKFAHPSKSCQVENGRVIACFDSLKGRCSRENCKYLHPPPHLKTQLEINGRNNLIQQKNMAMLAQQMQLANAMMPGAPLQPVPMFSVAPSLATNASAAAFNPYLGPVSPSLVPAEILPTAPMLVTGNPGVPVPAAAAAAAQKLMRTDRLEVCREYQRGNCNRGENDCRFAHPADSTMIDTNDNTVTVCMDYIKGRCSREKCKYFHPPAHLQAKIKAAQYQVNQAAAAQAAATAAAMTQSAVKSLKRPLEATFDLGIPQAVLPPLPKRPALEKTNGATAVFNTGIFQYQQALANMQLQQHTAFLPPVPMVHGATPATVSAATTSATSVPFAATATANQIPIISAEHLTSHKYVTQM
row,SMILES,Potency
1,O=S(=O)([N-]c1nc2ccccc2nc1-[n+]1ccccc1)c1ccc(F)cc1,"inconclusive: 20 µM [quencher, side channel, single point]"
2,Oc1ccc(/C=N/Nc2nn3cnnc3c3ccccc23)cc1,"inconclusive: 31.6 µM [quencher, side channel, single point]"
3,CCCCCCc1nc2c(=O)[nH]c3ccccc3c2o1,inactive
4,COc1ccc(-c2cn(Cc3ccc([N+](=O)[O-])cc3)nn2)cc1,"inconclusive: 14.1 µM [quencher, side channel, partial curve]"
5,COc1ccc(CCNC(=O)CSc2nn(-c3ccccc3)c(=S)s2)cc1OC,"inconclusive: 20 µM [fluorescent, side channel, partial curve]"
6,Cc1cccc(-n2c(SCC(=O)N3CCCC3)nc3n[nH]c(C)c3c2=N)c1,"inconclusive: 25.1 µM [fluorescent, side channel, single point]"
7,COc1cc2[nH]c(=S)nc(NCCCOC(C)C)c2cc1OC,inactive
8,O=C(CCn1c(=O)[nH]c2ccsc2c1=O)N1CCN(c2ccc([N+](=O)[O-])cc2)CC1,"inconclusive: 12.6 µM [quencher, side channel, partial curve]"
9,CS(=O)(=O)N(CC(=O)NCC1CCCO1)c1cccc(Cl)c1 (stereo not given),"inconclusive: 17.8 µM [quencher, side channel, partial curve]"
10,CC(=O)NC(Cc1ccc(F)cc1)C(=O)NC1CCN(c2ncccc2[N+](=O)[O-])CC1 (stereo not given),"inconclusive: 15.8 µM [quencher, side channel, partial curve]"
11,CC(C(=O)NCCCc1ccccc1)c1ccc([N+](=O)[O-])cc1 (stereo not given),"inconclusive: 7.94 µM [quencher, side channel, full curve]"
12,CCn1nc(NC(=O)COC)c2cc3cc(C)ccc3nc21,"inconclusive: 20 µM [quencher, side channel, partial curve]"
13,O=C(c1ccc(F)cc1)N1CCN(c2cc(N3CCCCC3)c(F)cc2[N+](=O)[O-])CC1,"inconclusive: 28.2 µM [quencher, side channel, single point]"
14,CC(NC(=O)c1ccc([N+](=O)[O-])o1)C12CC3CC(CC(C3)C1)C2 (stereo not given),"inconclusive: 10 µM [quencher, side channel, partial curve]"
15,CCOC(=O)C1(Cc2ccccc2)CCCN(Cc2cnn(CC)c2)C1 (stereo not given),inactive
16,COc1ccc(-n2c(C)cc(C(=O)Cn3nnc4ccccc4c3=O)c2C)cc1,"inconclusive: 14.1 µM [quencher, side channel, partial curve]"
17,CCO/C=C1/C(=O)N(C)C(=O)c2cc(OC)ccc21,"inconclusive: 25.1 µM [quencher, side channel, partial curve]"
18,CCCn1c(O)c(N=NC(=O)CNC(=O)Cc2ccc(OC)cc2)c2ccccc21,"inconclusive: 8.91 µM [quencher, partial curve]"
19,COc1nccnc1NS(=O)(=O)c1ccc(NC(=S)NC(=O)c2ccccc2F)cc1,"inconclusive: 0.158 µM [quencher, side channel, partial curve, poor fit]"
20,C/C(=N\O)C(=O)NCC1CCNCC1,inactive

row,SMILES,Potency
1,CC(=O)c1ccc(NC(=O)CSc2ccc(-c3sc(C)nc3C)nn2)cc1,"inconclusive: 17.8 µM [quencher, side channel, partial curve]"
2,CCOC(=O)c1c(NC(=S)Nc2ccccc2)sc2c1CCN(CCc1ccccc1)C2,"inconclusive: 11.2 µM [quencher, side channel, partial curve]"
3,COc1ccccc1C(=O)N/C(=C\c1cn(C)c2ccccc12)C(=O)NCCCN1CCOCC1,"inconclusive: 22.4 µM [quencher, side channel, partial curve]"
4,COc1cc(/C=N/N=C(\N)c2nonc2N)ccc1O,"inconclusive: 28.2 µM [quencher, side channel, partial curve]"
5,Oc1ccc(/C=N/Nc2cc(N3CCOCC3)nc(N3CCOCC3)n2)cc1O,"inconclusive: 8.91 µM [quencher, side channel, full curve, poor fit]"
6,CC(=O)Nc1ccc(/C=C(\C#N)C(N)=O)cc1,"inconclusive: 20 µM [quencher, side channel, single point]"
7,COc1ccc(N2CCN(c3oc(-c4ccccc4OC)nc3C#N)CC2)cc1,"inconclusive: 28.2 µM [quencher, side channel, single point]"
8,O=C(CN1CCCCCC1)Nc1cccc([N+](=O)[O-])c1,"inconclusive: 20 µM [quencher, side channel, partial curve]"
9,NC(=O)c1ccc(S(=O)(=O)N2CCSCC2)cc1,inactive
10,COC(=O)/C(C#N)=C1/C=Cc2ccccc2N1,"inconclusive: 28.2 µM [quencher, partial curve]"
11,O=C(O)c1ccc(-n2c(/C=C/c3cccc([N+](=O)[O-])c3)nc3ccccc3c2=O)cc1,"inconclusive: 3.16 µM [quencher, side channel, full curve]"
12,O=C(N/N=C/c1ccc(O)cc1)Nc1cccc2nsnc12,"inconclusive: 15.8 µM [quencher, side channel, partial curve]"
13,COC(=O)c1c(C)[nH]c(C)c1-c1cccc([N+](=O)[O-])c1,inactive
14,CC(C)(C)N/N=C1\CC(c2ccccc2)Oc2ccccc21 (stereo not given),inactive
15,C=CC[n+]1c(-c2ccc(OC)c(OC)c2)csc1NNC(=O)Nc1ccccc1,inactive
16,CCOc1cc(/C=N/NC(=O)CSc2cccc3cccnc23)ccc1O,inactive
17,CCC(=O)NNc1nc2c(C)c(C)ccc2s1,inactive
18,O=C(O)CN1C(=O)c2ccc(Oc3ccc4c(c3)C(=O)N(CC(=O)O)C4=O)cc2C1=O,"inconclusive: 15.8 µM [quencher, side channel, partial curve]"
19,Cc1nc2ccccc2n1Cc1ccccc1,inactive
20,NC1=NC(=O)/C(=C\c2ccsc2)S1,"inconclusive: 22.4 µM [quencher, side channel, partial curve]"
